In patent publication US12491185B2, “Inhibitors of mPTP” (NRG Therapeutics Ltd, priority 2023, dated 2025):
For at least one compound, name, drawing or mass did not settle the structure.

Legend:
mPTP [1] = experiment: mPTP activity (Ca2+ retention) assay in isolated rat liver mitochondria; format: biochemical; details: examples tested by different contract research organisations, believed comparable
Description: Pharmacological inhibition or modulation of the mPTP can be measured in well characterised ‘Ca^2+ retention’ assays performed in isolated mitochondria. In vitro, isolated mitochondria rapidly sequester exogenous Ca^2+ until the intramitochondrial Ca^2+ concentration reaches the threshold for mPTP activation. Once the pore is activated, mitochondrial integrity is compromised and the stored Ca^2+ is released. The distribution of Ca^2+ between extra- and intra-mitochondrial compartments can be measured in real time with the use of membrane-impermeant Ca^2+ sensitive fluorescent dyes. Depending on the configuration of the assay, inhibition or modulation of the mPTP either delays the opening of the pore or increases the concentration of Ca^2+ required to induce mPTP opening.
MPTP activity was measured in mitochondria freshly isolated from female Sprague Dawley (250 to 300 gram) rat livers using the following method. Cervical dislocation was performed on the rat. The liver was then perfused in-situ with −40 ml cold Dulbecco's Phosphate Buffered Saline (DPBS) prior to dissection and transferred into 30 ml Isolation Buffer (250 mM Sucrose, 10 mM KCl, 1 mM EGTA, 1 mM EDTA, 25 mM HEPES, adjusted to pH 7.5 with 1M NaOH). Each lobe of the liver was then removed from the buffer, minced using tweezers and a scalpel into −5 mm pieces then transferred into a 50 ml Potterton dounce homogenization tube on ice containing 30 ml ice-cold centrifugation buffer (300 mM Trehalose, 25 mM HEPES, 1 mM EGTA, 1 mM EDTA, 10 mM KCl, adjusted to pH 7.5 with 1M NaOH and supplemented with 0.1% bovine serum albumin (BSA) and complete protease inhibitor cocktail (one tablet of inhibitor per 50 mls of buffer). Homogenisation was carried out using a teflon pestle at 1800 rpm. The slurry was centrifuged at 800 g for 10 min at 4° C., then the supernatant centrifuged at 10,000 g for 10 min. The pellet was washed once with FLIPR assay buffer (75 mM Mannitol, 25 mM Sucrose, 5 mM Potassium Phosphate Monobasic, 20 mM Tris base, 100 mM KCl, 0.1% BSA adjusted to pH 7.4 with 5M HCl) centrifuged again, then resuspended in FLIPR assay buffer to a concentration of 8.8 mg/ml protein.
Tested compounds (10 mM stock in DMSO) were serially diluted in DMSO in half log steps to generate 10 test concentrations (final concentrations in assay 30 μM to 1 nM). An intermediate dilution of 5 μl DMSO samples into 247 μl FLIPR assay buffer was carried out prior to transfer of 5 μl into duplicate wells of a 384 well polypropylene assay plate. Control wells were 0.5% (v/v) DMSO and 5 μM cyclosporin A.
A stock mitochondria/Fluo5N assay solution was prepared in 5.6 ml FLIPR assay buffer (at RT) supplemented with succinate disodium salt (10 mM), rotenone (1 μM), Fluo5N pentapotassium salt (2 μM) and 1 ml mitochondria suspension, then transferred (15 μl) into the assay plate containing test compounds and incubated for 10 min at RT. Assay plates were processed for fluorescence detection on either a FLIPR Tetra (Molecular Devices) or CLARIOstar (BMG) plate reader. For kinetic fluorescence detection on the FLIPR, dye fluorescence was measured every 3 sec for a total of 10 min. After 12 sec, a 2.5 μl bolus of CaCl2 (75 μM) was added from a source plate containing 675 μM CaCl2 in FLIPR assay buffer. Alternatively, the 2.5 μl addition of CaCl2 was performed using a Viaflow 384, plates were incubated at RT for 10 min, and dye fluorescence measured after 10 min on the CLARIOstar plate reader. pIC50 values for tested compounds were calculated using the fluorescence value collected at the 10 min timepoint on either plate reader, with % inhibition calculated using the DMSO control and cyclosporin A values as 0 and 100% respectively.

mPTP [2] = experiment: mPTP activity assay in isolated rat brain mitochondria; format: biochemical; details: fluorescence at 10 min timepoint
Protocol: MPTP activity was measured in brain mitochondria freshly isolated from female Sprague Dawley (250 to 300 gram) rats. Anaesthetised rats were perfused in-situ with −40 ml cold Dulbecco's Phosphate Buffered Saline (DPBS), then brains dissected and transferred into 30 ml Isolation Buffer (225 mM mannitol, 75 mM sucrose, 1 mM EGTA, adjusted to pH 7.4 with 1M NaOH). The brain was minced using tweezers and a scalpel into −5 mm pieces then transferred into a 50 ml Potterton Dounce homogenization tube on ice containing 10 ml ice-cold isolation buffer (as above with addition of Complete Protease inhibitor; 1 tablet per 50 ml buffer). Homogenisation was carried out using a teflon pestle at 1800 rpm. The slurry was centrifuged at 2000 g for 10 min at 4° C., then the supernatant centrifuged at 12,000 g for 9 min. The pellet was resuspended with a dounce homogeniser in isolation buffer as above but with the addition of 0.02% digitonin, centrifuged at 12,000 g for 11 min and finally resuspended in 5 ml modified isolation buffer (as above but with EGTA reduced to 0.1 mM).
Test compounds were prepared in 384 well polypropylene assay plates as described above for the liver mitochondria assay. A stock mitochondria/Fluo5N assay solution was prepared in 5.6 ml assay buffer (120 mM mannitol, 40 mM MOPS, 5 mM KH2PO4, 60 mM KCl, 10 mM pyruvate, 2 mM malate, 2 mM MgCl2, 20 μM ADP, 1.26 μM oligomycin A, adjusted to pH 7.4) supplemented with Fluo5N pentapotassium salt (2 μM) and 1 ml mitochondria suspension, then transferred (15 μl) into the assay plate containing test compounds and incubated for 10 min at RT. Assay plates were then transferred to a FLIPR Tetra plate reader (Molecular Devices). Dye fluorescence was then measured every 3 sec for a total of 10 min.

mPTP Rat liver pIC50 (mPTP [1]) | mPTP Rat brain pIC50 (mPTP [2]) | SMILES
6.34 | – | CCC(F)(CNC(=O)c1nccc(=O)[nH]1)Cc1ccc(F)cc1F (stereo not shown) [Example 216]
5.81 | – | O=C(NCC(Cc1ccc(F)cc1)C1CC1)c1nccc(=O)[nH]1 (stereo not shown) [Example 218]
5.23 | 5.94 | O=C(NC[C@H](Cc1ccc(F)cc1)C1CC1)c1nccc(=O)[nH]1 [Example 250]

Second part, the molecule before the results:

SMILES | mPTP Rat liver pIC50 (mPTP [1]) | mPTP Rat brain pIC50 (mPTP [2])
Cn1nc(C(=O)NCC2(Cc3cccc(OC(F)(F)F)c3)CCC2)[nH]c1=O [Example 109, 1-methyl-5-oxo-N-((1-(3-(trifluoromethoxy)benzyl)cyclobutyl)methyl)-4,5-dihydro-1H-1,2,4-triazole-3-carboxamide] | <4.57 | –
CC(CNC(=O)c1nccc(=O)[nH]1)(Cc1ccc(F)cc1)C1CC1 (stereo not shown) [Example 217] | 6.37 | –
O=C(NC[C@@H](Cc1ccc(F)cc1)C1CC1)c1nccc(=O)[nH]1 [Example 249] | 6.25 | 7.07
Cn1nc(C(=O)NC[C@@H](Cc2ccc(Cl)cc2F)C2CC2)[nH]c1=O [Example 254] | 4.52 | 5.70
